What all share (assay): glycan array binding signal (z-score within array); higher = stronger binding
Holding throughout (conditions): glycan notation: IUPAC condensed, linker removed

Test [1] addresses Gal(b1-4)GlcNAc(b1-2)Man(a1-3)[Gal(b1-4)GlcNAc(b1-2)Man(a1-6)]Man(b1-4)GlcNAc(b1-4)[Fuc(a1-6)]GlcNAc. The method in brief:
(§1)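 Columns mapping to the same glycan were averaged after glycan names were converted to IUPAC-condensed notation. The data come from 3228 arrays in the Consortium for Functional Glycomics database, limited to those with an available protein sequence. Binding is reported as a within-array Z-score averaged across arrays of one protein sequence and across linkers.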

The target of test [2] is Gal(b1-4)GlcNAc(b1-2)Man(a1-3)[Gal(b1-4)GlcNAc(b1-2)Man(a1-6)][Gal(b1-4)GlcNAc(b1-4)]Man(b1-4)GlcNAc(b1-4)[Fuc(a1-6)]GlcNAc. Put shortly: as §1
Test [3] deals with Gal(b1-4)GlcNAc(b1-2)Man(a1-3)[Gal(b1-4)GlcNAc(b1-2)Man(a1-6)][GlcNAc(b1-4)]Man(b1-4)GlcNAc(b1-4)[Fuc(a1-6)]GlcNAc. The method in brief: as §1
In test [4] the target is Gal(b1-4)GlcNAc(b1-2)Man(a1-3)[GlcNAc(b1-2)Man(a1-6)]Man(b1-4)GlcNAc(b1-4)GlcNAc. The method in brief:
as §1

In test [5] the target is Gal(b1-4)GlcNAc(b1-2)Man(a1-3)[GlcNAc(b1-4)][Gal(b1-4)GlcNAc(b1-2)Man(a1-6)]Man(b1-4)GlcNAc(b1-4)GlcNAc. The method in brief:
as §1

The target of test [6] is Gal(b1-4)GlcNAc(b1-2)Man(a1-3)[Man(a1-6)]Man(b1-4)GlcNAc(b1-4)GlcNAc. The method in brief: as §1
Test [7] deals with Gal(b1-4)GlcNAc(b1-2)Man(a1-6)Man(b1-4)GlcNAc(b1-4)GlcNAc. The method in brief:
as §1

The target of test [8] is Gal(b1-4)GlcNAc(b1-2)Man(a1-6)[GlcNAc(b1-2)Man(a1-3)]Man(b1-4)GlcNAc(b1-4)GlcNAc. The method in brief: as §1
Test [9] deals with Gal(b1-4)GlcNAc(b1-2)Man(a1-6)[Man(a1-3)]Man(b1-4)GlcNAc(b1-4)GlcNAc. The method in brief:
as §1

Test [10] has as its target Gal(b1-4)GlcNAc(b1-2)[Gal(b1-4)GlcNAc(b1-4)]Man(a1-3)[Gal(b1-4)GlcNAc(b1-2)Man(a1-6)]Man(b1-4)GlcNAc(b1-4)GlcNAc. The method in brief: as §1
Test [11] concerns the target Gal(b1-4)GlcNAc(b1-2)[Gal(b1-4)GlcNAc(b1-4)]Man(a1-3)[Gal(b1-4)GlcNAc(b1-2)[Gal(b1-4)GlcNAc(b1-6)]Man(a1-6)]Man(b1-4)GlcNAc(b1-4)GlcNAc. Put shortly: as §1
The target in test [12] is Gal(b1-4)GlcNAc(b1-2)[Gal(b1-4)GlcNAc(b1-4)]Man(a1-3)[GlcNAc(b1-4)][Gal(b1-4)GlcNAc(b1-2)Man(a1-6)]Man(b1-4)GlcNAc(b1-4)GlcNAc. Put shortly: as §1
The target in test [13] is Gal(b1-4)GlcNAc(b1-2)[Gal(b1-4)GlcNAc(b1-4)]Man(a1-3)[GlcNAc(b1-4)][Gal(b1-4)GlcNAc(b1-2)[Gal(b1-4)GlcNAc(b1-6)]Man(a1-6)]Man(b1-4)GlcNAc(b1-4)GlcNAc. The method in brief:
as §1

The target of test [14] is Gal(b1-4)GlcNAc(b1-2)[Gal(b1-4)GlcNAc(b1-6)]Man(a1-6)[Gal(b1-4)GlcNAc(b1-2)Man(a1-3)]Man(b1-4)GlcNAc(b1-4)GlcNAc. Put shortly: as §1
Test [15] deals with Gal(b1-4)GlcNAc(b1-2)[Gal(b1-4)GlcNAc(b1-6)]Man(a1-6)[Gal(b1-4)GlcNAc(b1-2)Man(a1-3)]Man(b1-4)GlcNAc(b1-4)[Fuc(a1-6)]GlcNAc. The method in brief:
as §1

For test [16], the target named is Gal(b1-4)GlcNAc(b1-2)[Gal(b1-4)GlcNAc(b1-6)]Man(a1-6)[GlcNAc(b1-4)][Gal(b1-4)GlcNAc(b1-2)Man(a1-3)]Man(b1-4)GlcNAc(b1-4)GlcNAc. Put shortly: as §1
In test [17] the target is Gal(b1-4)GlcNAc(b1-2)[Gal(b1-4)GlcNAc(b1-6)]Man(a1-6)[GlcNAc(b1-4)][Gal(b1-4)GlcNAc(b1-2)[Gal(b1-4)GlcNAc(b1-4)]Man(a1-3)]Man(b1-4)GlcNAc(b1-4)[Fuc(a1-6)]GlcNAc. The method in brief: as §1
Test [18] concerns the target Gal(b1-4)GlcNAc(b1-3)Gal(b1-3)GalNAc. The method in brief:
as §1

Test [19] addresses Gal(b1-4)GlcNAc(b1-3)Gal(b1-3)GlcNAc. Put shortly: as §1

The other results are listed elsewhere or left out.

B1: GS13455A-bfa-343-25-343 (Bacteroides fragilis) (protein)
chain: KDEIQIVDQDTSWQMDNKYIEEDIREQLGIDPFTDLVYLGYYGNPYTQLEAINDLVNTTLVGKNELSFKVKVTKPYKEDIKVNLMKEDKLVTDFPEMAEGIPLFPSENCTFEGGVLKAGELETTVKLTLKDVEKLNNLSGYVMAIKLTMEGSHEHLAIARTRSSYFVKLNLSIRLDNIDSSNKKIEGKGFNKEISFKSDIRPDKLGSLNDGNFTANNWYTSNANNYLTIILPEKQSLKGFRLDTNTSPSGSYMLKSCRVMVETPDGNWVNHGVFDRKSMDGIAYISFKKPVECTKVRFENMMAFNGRFSVDVNEVTAFR
As to B1, the “glycan array binding signal (z-score)” value is 0.019 in test [1]; -0.324 in test [2]; -0.674 in test [3]; -0.46 in [4]; -0.456 in [5]; -0.471 in [6]. For the same molecule, the “glycan array binding signal (z-score)” value was -0.182 in test [7]; -0.25 in test [8]; -0.145 in test [9]; 0.247 in test [10]; -1.14 in test [11]; 0.787 in test [12]. Also, the “glycan array binding signal (z-score)” value in test [13] is -0.451; in [14] it was -0.11; in test [15], 0.927; in test [16] it was -0.409; in test [17] it was -0.04; in test [18], 0.107. In addition, in [19], the “glycan array binding signal (z-score)” value was -0.351.

The values above are taken from the supplement of paper PMC8728848.
